Data from article PMC7940618, “Specific inhibition of the Survivin–CRM1 interaction by peptide-modified molecular tweezers” (Nature Communications, 2021).

Biological target: T1, CRM1_1-1062VLV430AAA mutant (UniProt O14980, VLV430AAA)
T1 construct: nuclear export receptor CRM1, residues 1-1062 with VLV430AAA; pTGA20 vector obtained from Dr. Sonia Banuelos; source: E. coli BL21-CodonPlus-RIL, purified (HisTrap FF, TEV cleavage, HiTrap Q HP)
Experiment: fluorescence polarisation; fluorescence anisotropy competition; Atto488-Survivin120 preincubated with CRM1_1-1062VLV430AAA at 1:5, titrated with tweezers to approx. 180 µM; PBS pH 7.4, 25 °C; n = 1
Conditions: both partners purified

T1 sequence (O14980 other isoform, or with tags, fused parts or gaps VLV430AAA | VLV430AAA | mutant): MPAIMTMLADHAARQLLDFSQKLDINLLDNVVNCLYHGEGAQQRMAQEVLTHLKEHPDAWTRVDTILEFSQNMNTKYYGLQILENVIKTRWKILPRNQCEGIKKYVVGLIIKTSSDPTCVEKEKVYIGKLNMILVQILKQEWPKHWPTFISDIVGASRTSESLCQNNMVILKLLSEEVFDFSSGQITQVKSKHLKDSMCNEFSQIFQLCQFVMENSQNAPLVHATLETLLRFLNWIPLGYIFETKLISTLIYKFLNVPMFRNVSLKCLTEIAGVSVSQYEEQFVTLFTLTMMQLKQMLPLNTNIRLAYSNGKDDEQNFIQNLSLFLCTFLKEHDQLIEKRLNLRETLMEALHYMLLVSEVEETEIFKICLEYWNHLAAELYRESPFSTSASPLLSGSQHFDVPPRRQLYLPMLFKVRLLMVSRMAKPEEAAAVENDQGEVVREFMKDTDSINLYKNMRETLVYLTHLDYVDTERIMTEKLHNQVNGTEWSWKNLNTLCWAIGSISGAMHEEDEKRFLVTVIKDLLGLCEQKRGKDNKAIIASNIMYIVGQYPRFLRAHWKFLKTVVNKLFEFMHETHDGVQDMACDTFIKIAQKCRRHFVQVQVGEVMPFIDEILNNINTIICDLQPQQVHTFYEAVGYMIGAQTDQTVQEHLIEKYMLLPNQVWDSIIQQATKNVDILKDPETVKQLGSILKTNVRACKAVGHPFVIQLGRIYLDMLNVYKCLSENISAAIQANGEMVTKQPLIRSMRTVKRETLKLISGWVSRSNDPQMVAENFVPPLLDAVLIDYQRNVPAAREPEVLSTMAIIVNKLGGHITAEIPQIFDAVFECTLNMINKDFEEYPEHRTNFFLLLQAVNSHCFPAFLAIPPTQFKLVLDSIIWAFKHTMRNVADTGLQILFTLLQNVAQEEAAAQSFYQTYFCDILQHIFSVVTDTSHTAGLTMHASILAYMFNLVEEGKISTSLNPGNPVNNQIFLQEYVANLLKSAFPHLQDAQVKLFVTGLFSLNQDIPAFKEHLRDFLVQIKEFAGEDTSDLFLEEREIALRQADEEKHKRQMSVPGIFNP

B1: Atto488-labeled Survivin120 (domain or fragment)
chain: not shown
modifications: ATTO488-maleimide label (site not stated)
notes: Survivin (BIRC5 isoform alpha), human, […]; Named without GST, so the GST tag was probably cleaved (surmise); source: E. coli soluBL21, purified, labeled with ATTO488-maleimide
  binding result: binds
